Source: publication PMC4336329 (PLoS ONE, 2015)
The campaign covered roughly 310,000 compounds. About 14,000 (4.5%) showed an effect of 50% or more. Effects have a minus sign here. Some of the results follow.

target: human ether-à-go-go-related gene (hERG) potassium channel (human, UniProt Q12809); experiment: primary screen, population patch clamp on CHO cells stably expressing hERG
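Note: peak tail current of the secondary pulse compared with the same well before compound.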

Sequence of human ether-à-go-go-related gene (hERG) potassium channel (Q12809 whole entry, looked up): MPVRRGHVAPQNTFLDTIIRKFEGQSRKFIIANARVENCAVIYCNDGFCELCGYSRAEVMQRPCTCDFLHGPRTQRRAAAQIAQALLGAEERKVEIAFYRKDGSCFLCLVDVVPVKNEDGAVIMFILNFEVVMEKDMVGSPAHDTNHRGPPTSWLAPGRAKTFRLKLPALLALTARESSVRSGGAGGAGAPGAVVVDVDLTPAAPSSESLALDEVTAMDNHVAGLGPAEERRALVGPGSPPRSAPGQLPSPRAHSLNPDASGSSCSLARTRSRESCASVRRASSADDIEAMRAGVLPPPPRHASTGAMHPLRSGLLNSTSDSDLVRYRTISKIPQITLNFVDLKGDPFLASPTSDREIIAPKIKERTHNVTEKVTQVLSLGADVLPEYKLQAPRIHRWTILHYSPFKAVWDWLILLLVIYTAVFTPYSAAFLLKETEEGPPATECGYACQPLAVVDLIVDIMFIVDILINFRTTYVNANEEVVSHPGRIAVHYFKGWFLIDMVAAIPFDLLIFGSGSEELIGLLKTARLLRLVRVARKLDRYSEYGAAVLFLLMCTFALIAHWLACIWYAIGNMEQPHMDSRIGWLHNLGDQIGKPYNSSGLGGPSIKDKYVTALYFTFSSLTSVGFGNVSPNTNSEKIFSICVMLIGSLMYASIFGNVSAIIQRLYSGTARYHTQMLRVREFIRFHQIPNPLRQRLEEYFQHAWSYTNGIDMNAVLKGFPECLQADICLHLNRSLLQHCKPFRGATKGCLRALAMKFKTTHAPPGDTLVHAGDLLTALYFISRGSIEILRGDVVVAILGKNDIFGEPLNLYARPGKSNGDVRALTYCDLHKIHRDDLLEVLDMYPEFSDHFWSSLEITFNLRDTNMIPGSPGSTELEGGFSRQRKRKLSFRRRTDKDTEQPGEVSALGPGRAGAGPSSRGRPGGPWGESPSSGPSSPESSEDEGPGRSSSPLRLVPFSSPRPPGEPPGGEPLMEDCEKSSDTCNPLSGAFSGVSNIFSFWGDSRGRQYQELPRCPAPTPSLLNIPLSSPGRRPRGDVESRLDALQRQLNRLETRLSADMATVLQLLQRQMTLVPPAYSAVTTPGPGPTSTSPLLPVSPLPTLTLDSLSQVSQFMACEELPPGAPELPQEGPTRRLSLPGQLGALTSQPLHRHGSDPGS

Row | SMILES | hERG current change (%, negative = inhibition) at 10uM
1 | O=C(Cn1cc(C(F)(F)F)cc(Cl)c1=O)NCCc1ccccc1 | -23.8%
2 | C=CCn1c(SCC(=O)N2CCOCC2)nnc1C(C)NC(=O)c1ccccc1 (stereo not drawn) | 13.4%
3 | CN(/N=C/C=C/c1ccccc1)c1cc(=O)n(C)c(=O)[nH]1 | -12.8%
4 | Cc1ccc(S(=O)(=O)NC(=O)c2cccn2C)cc1 | 14.7%
5 | CCCn1c(=O)c(C(=O)Nc2ccccc2C(=O)OCC)c(O)c2ccccc21 | 8.41%
6 | O=C(COC(=O)c1cc(S(=O)(=O)N2CCc3ccccc3C2)ccc1Cl)NCc1ccco1 | -20.2%
7 | COc1ccc(CCN=C(N)NS(=O)(=O)c2cc(F)ccc2F)cc1 | -17.2%
8 | Cc1cc(N2CCCCC2)nc(N)n1 | 27.4%
9 | O=C(c1cn(-c2ccccc2)nc1-c1cccs1)N1CCN(c2ccccn2)CC1 | -7.92%
10 | C=COCCn1c(=N)n(CCC)c2ccccc21.Cl | -28.3%
11 | CCOC(=O)CSc1nc2c(sc3ccc([N+](=O)[O-])cc32)c(=O)n1Cc1ccco1 | -32.4%
12 | N#Cc1ccccc1CSCCNC(=O)Cc1c(F)cccc1Cl | 15.8%
13 | CCOc1ccc(S(=O)(=O)Nc2ccc(C(=O)N/N=C/c3c(C)nn(-c4ccccc4)c3N3CCCC3)cc2)cc1 | 4.05%
14 | Cc1ccc(NC(=O)Cn2c(=O)c3cccn3c3ccccc32)c(Cl)c1 | 7.07%
15 | Cc1ccc(C)c(OC(=O)c2cccnc2)c1 | 6.95%
16 | CCc1cc(=O)oc2c3c(cc(OCC(=O)NCc4ccccn4)c12)OC(C)(C)CC3 | -14.9%
17 | COC(=O)C1CCN(Cc2cc(=O)oc3cc(OC)ccc23)CC1 | -17.8%
18 | Cc1ccc2nsnc2c1NC(=O)c1ccc([N+](=O)[O-])o1 | 13.1%
19 | COC(=O)c1cc(C)sc1NC(=S)N1CCN(CCc2ccccc2)CC1 | 29.5%
20 | Cc1cccc(C(=O)NCC(=O)NCCCSc2ccccc2)c1 | -9.36%
21 | COc1cccc(-c2nc(CCl)cs2)c1OC.Cl | 5.27%
22 | CCOc1cc(C2CC(=O)c3c(ccc4ccccc34)N2)ccc1O (stereo not drawn) | -3.76%

Row | SMILES | hERG current change (%, negative = inhibition) at 10uM
23 | Cc1ccc(NC(=O)C2C3C=CC4(O3)C2C(=O)N(CCN2CCOCC2)C4C(=O)NC2CCCCC2)cc1C (stereo not drawn) | 18.5%
24 | COc1cc(/C=N/n2nnnc2N)ccc1OCc1c(C)no[n+]1[O-] | 9.97%
25 | C=CCN(CC(=O)c1sc(C(=O)OCC)nc1C)c1cccc(Br)c1 | -1.13%
26 | O=C(O)C(Cc1cc2ccccc2[nH]1)N1C(=O)C2CC=C(Cl)CC2C1=O (stereo not drawn) | -4.84%
27 | O=C1c2ccc(-c3nc4ccccc4o3)cc2C(=O)N1Cc1cccnc1 | -0.0291%
28 | CCCc1nc(SCC(=O)Nc2nnc(CC)s2)c2c(C)c(C)sc2n1 | 17.8%
29 | COc1cc(OC)cc(-n2nc(C(=O)NCCCN3CCOCC3)c3ccccc3c2=O)c1 | -24.4%
30 | CCS(=O)(=O)c1nc(S(=O)(=O)c2ccc(Cl)cc2)c(N2CCN(CCO)CC2)s1 | -35.2%
31 | O=C(O)C(=O)O.O=C(c1ccco1)N1CCN(S(=O)(=O)c2ccc([N+](=O)[O-])cc2)CC1 | -39.8%
32 | Cc1occc1C(=O)n1cnc2ccccc21 | 12.9%
33 | COC(C(=O)NC1CCCCCCC1)c1ccccc1 (stereo not drawn) | -6.3%
34 | CC(C)Oc1ccc(/C=C(\C#N)C(=O)NC2CC2)cc1 | 10.1%
35 | O=S(=O)(c1cccc(-c2cn3ccccc3n2)c1)N1CCCCC1 | -31.9%
36 | Cn1nnnc1SCC(=O)Nc1cc(S(=O)(=O)N2CCCC2)ccc1Cl | 5.41%
37 | CCOC(=O)[C@H]1CCC[C@@H](NS(=O)(=O)c2ccc(NC(C)=O)cc2)C1 | 14.1%
38 | COc1ccc(-n2c3c(cc(C(=O)NCc4ccco4)c2=O)C(=O)CC(C)(C)C3)cc1 | -56.6%
39 | Cc1ncc(CO)c2c1Oc1nc(-c3ccccc3)nc(SCC(=O)Nc3cccc(O)c3)c1C2 | -37.4%
40 | CC(C)(C)[C@H]1C=C(C(N)=O)O[C@@H](OCc2ccc(CO)cc2)C1 | -2.17%
41 | CCc1ccccc1NC(=S)N(CCc1ccncc1)C(C)C | -29.6%
42 | Nc1nc(=S)n(-c2ccccc2)[nH]1 | 18.7%
43 | O=C(NCc1ccccn1)C(=O)NCC1OCCN1S(=O)(=O)c1ccc(F)cc1 (stereo not drawn) | 11.7%
44 | C=CCNC(=S)NN=C1CCC(c2ccccc2)CC1 (stereo not drawn) | 3.31%

Row | SMILES | hERG current change (%, negative = inhibition) at 10uM
45 | CS(=O)(=O)Nc1cccc2cccnc12 | 10.5%
46 | Cc1ccc(CNC(=O)c2nn(C)c(C)c2[N+](=O)[O-])cc1 | -2.23%
47 | Cc1sc(NC(=O)C2C3CCC(O3)C2C(=O)O)nc1-c1ccc(CC(C)C)cc1 (stereo not drawn) | -1.32%
48 | COc1ccc(C2c3c(ccc4ccccc34)Oc3ncn4nc(-c5ccco5)nc4c32)cc1 (stereo not drawn) | -12.4%
49 | COc1ccc(Cn2nnnc2CN2CCOCC2)cc1 | -6.11%
50 | CCN(CC)c1ccc(/C=N/NC(=O)CNC(=O)c2ccc3c(c2)OCCO3)cc1 | -5.14%
51 | COc1ccc(C(=O)CCC(=O)N2CCN(c3ccc([N+](=O)[O-])cc3)CC2)cc1 | -63.8%
52 | CC1CCCCN1C(=O)CN1CCN(S(=O)(=O)c2ccc(Br)cc2Cl)CC1 (stereo not drawn) | -41.6%
53 | COc1ccc(CN2CCNC(=O)C2CC(=O)N(C)Cc2ccon2)c(OC)c1 (stereo not drawn) | 14.6%
54 | COc1ccc(/C=N/n2cnnc2SCCO)cc1OC | 2.24%
55 | CN(C)CCC(=O)c1ccc2c(c1)OCO2.Cl | 10.7%
56 | O=C(CSc1nnc(CNC(=O)c2cccc(C(F)(F)F)c2)o1)NCc1ccco1 | 8.83%
57 | CN(CC(=O)Nc1cc(S(=O)(=O)N2CCCCCC2)ccc1Cl)Cc1ccc2c(c1)OCO2 | -5.85%
58 | Cc1cc(C(F)(F)F)nc(SCC(=O)NC2CC3CCC2C3)n1 (stereo not drawn) | -19.6%
59 | CC(Oc1ccc(Cl)cc1Cl)C(=O)NNC(=O)C(=O)N1CCCCC1 (stereo not drawn) | 0.728%
60 | COC1CC(OC2CCC3(C)C(CCC4C3CCC3(C)C(C5=CC(=O)OC5)C(OC(C)=O)CC43O)C2)OC(C)C1OC1OC(COC2OC(CO)C(O)C(O)C2O)C(O)C(O)C1O (stereo not drawn) | 11.6%
61 | O=C(NCC(c1ccco1)N1CCN(c2ccccc2F)CC1)C(=O)NC1CCCC1 (stereo not drawn) | -2.4%
62 | COc1ccc(SCCc2nnc(-c3ccccc3)o2)cc1 | 6.5%
63 | COc1ccccc1/C=C/C(=O)NNC(=O)c1cccs1 | 2.91%
64 | COCCNC(=O)C1CC(=O)N(c2ccc(F)c(Cl)c2)C1 (stereo not drawn) | -2.89%
65 | COc1ccc(C(=O)NC(=S)NNC(=O)c2cnccn2)cc1OC | 12.2%
66 | CCOCCCN1CC(C(=O)NCCc2ccc(C)cc2)CC1=O (stereo not drawn) | 9.58%

Row | SMILES | hERG current change (%, negative = inhibition) at 10uM
67 | O=C(NCC(c1cccnc1)N1CCN(c2ccccc2F)CC1)Oc1ccccc1 (stereo not drawn) | -5.55%
68 | O=C1CCCC(=O)N1c1ccc(N2CCOCC2)c([N+](=O)[O-])c1 | 17.5%
69 | CCn1c(C)c(C(C)=O)c(N2CCN(C(c3ccccc3)c3ccccc3)CC2)nc1=S | -2.41%
70 | CC(=O)NC12CC3CC(C1)CC(C(=O)NCc1ccc(C)cc1)(C3)C2 | 19.8%
71 | COc1ccc(CCNC(=O)CSCC(=O)Nc2ccccc2)cc1OC | 17.8%
72 | Cn1c2ccccc2c(=O)c2ccc(-c3ccc4c(c3)OCO4)cc21 | 13.1%
73 | CCOC(=O)c1c(C)[nH]c(C)c1C(=O)COC(=O)/C=C/c1ccco1 | -3.81%
74 | CC1=Nc2ccccc2NC(=O)C1Sc1nnc(C)s1 (stereo not drawn) | -12.6%
75 | CCNS(=O)(=O)c1ccc(NC(=O)c2ccccc2)cc1 | -14.7%
76 | COC(=O)CC1C(=O)NCCN1C(=S)Nc1ccc(F)cc1 (stereo not drawn) | 2.58%
77 | O=C(c1cccs1)C1C(c2ccc(Br)cc2)NC(=S)NC1(O)C(F)(F)F (stereo not drawn) | -8.01%
78 | COc1ccc(-c2ocnc2C(=O)N2CCN(Cc3cccnc3)CC2)cc1 | 11%
79 | Cn1cccc1C(=O)OCc1ccc(F)cc1 | 9.61%
80 | CCOc1ccc(Cl)cc1CNCCNCCO.Cl | 24.3%
81 | CCOc1ccc(Cl)cc1S(=O)(=O)N1CCN(c2ccc(C)c(C)c2)CC1 | -0.908%
82 | COC(=O)CCCCC1SCC(NC(=O)c2ccccc2)C1=O (stereo not drawn) | -2.45%
83 | CCCCOC(=O)c1ccc(NC(=S)NC(=O)c2c(Cl)cnn2C)cc1 | 1.84%
84 | CSCCC(NC(=O)c1ccc(Cl)cc1Cl)C(=O)NNC(=O)c1ccncc1 (stereo not drawn) | -6.73%
85 | O=C(Cc1cccc2ccccc12)NNC(=O)c1cccs1 | 15.7%
86 | COc1ccccc1N1CCN(Cc2ccc(-c3ccccc3[N+](=O)[O-])o2)CC1 | -9.04%
87 | Cc1csc(NC(=O)C2CCCN(S(=O)(=O)c3cccnc3)C2)n1 (stereo not drawn) | -11.6%
